Assay results reported in PubChem BioAssay AID504832 (National Center for Advancing Translational Sciences (NCATS), 2011).
Screen size: about 310,000 compounds; about 18,000 (5.8%) were called active. This list was built around the results that the source calls inconclusive (neither active nor inactive); the mix of calls is not that of the screen. Calls follow the shape of the dose curve; as a rule, active = well fitted inhibition curve with a large enough effect; inconclusive = small, poorly fitted or top-dose-only effect, or another doubt; inactive = no such curve, though single readings can be large or run the other way. Potencies of inconclusive entries are left out as doubtful fits.
Potency is read from the fitted curve at half-maximal effect; tags tell the direction and shape of the fitted curve.

Experiment: Primary qHTS for delayed death inhibitors of the malarial parasite plastid, 48 hour incubation
Details: P. falciparum luciferase growth in erythrocytes; series mostly up to 28.7 µM
How it was run: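 Read-out is firefly luciferase luminescence from an integrated reporter in P. falciparum, so falling signal marks reduced parasite growth. Infected erythrocytes were at 2% hematocrit and 0.1% parasitemia (final) in Albumax-supplemented RPMI 1640.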
In the case of `Cc1cccc(CN2CCC(CNC(=O)Cn3ncc4c([nH]c5ccccc54)c3=O)CC2)c1`, the Potency is reported as inconclusive [inhibitor, single point].
With `CC(NC(=O)C(=O)NCCN1CCN(C(=O)c2ccc([N+](=O)[O-])cc2)CC1)c1ccccc1` (stereo unspecified) the Potency was inconclusive [inhibitor, partial curve, poor fit].
In the case of `COc1ccc(C(C(=O)NCc2ccc(F)cc2)N(C(=O)c2csnn2)C2CC2)cc1` (stereo unspecified), the Potency is reported as “inactive”.
With `O=C(CSc1nc2ccccc2nc1N1CCOCC1)N1CCN(c2ccccc2)CC1` the Potency was active: 9.28 µM.
For `O=C(c1cnc2ccc(Cl)cc2c1Cl)N1CCOCC1`, the Potency was “inactive”.
For `C=CCn1c(SCC(=O)c2c(N)n(C)c(=O)n(C)c2=O)nnc1-c1ccncc1`, the Potency was inconclusive [inhibitor, single point].
For `CSCc1ccc(C(=O)N2CCC(CCC(=O)N(C)Cc3ccccc3)CC2)o1`, the Potency was “inactive”.
For `Cc1ccc(-c2nn(CC(=O)N3CCOCC3)c(=O)c3ccccc23)cc1S(=O)(=O)N(C)C`, the Potency was inconclusive [inhibitor, full curve, poor fit].
With `COCCOc1ccc(C(F)(F)F)cc1NC(=O)COC(=O)C12CC3CC(CC(O)(C3)C1)C2` the Potency was active: 2.33 µM.
For `CCCCC(=O)NNC(=O)CC(=O)Nc1ccccc1C(=O)O`, the Potency was inconclusive [inhibitor, full curve].
In the case of `COc1ccccc1N1CCN(C(c2cc3cc(C)ccc3[nH]c2=O)c2nnnn2C2CCCC2)CC1` (stereo unspecified), the Potency is reported as inconclusive [inhibitor, full curve].
With `O=C(Nc1ccc(Cc2ccncc2)cc1)C1CCC(N2C(=O)C3CC=CCC3C2=O)CC1` (stereo unspecified) the Potency was inconclusive [inhibitor, partial curve].
In the case of `O=C(CCl)N(c1ccc(Cl)cc1)c1c[nH]c2ccccc12`, the Potency is reported as active: 2.33 µM.
For `CCC1(c2ccc(Cl)cc2)NC(=O)N(CC(=O)NC2CCCCCC2)C1=O` (stereo unspecified), the Potency was inconclusive [inhibitor, single point].
With `COc1ccc(S(=O)(=O)N2CCCCCC2)cc1C(=O)N(C)Cc1ccccc1F` the Potency was inconclusive [inhibitor, partial curve, poor fit].
In the case of `CCOC(=O)c1c(C)[nH]c(C)c1C(=O)COC(=O)COc1ccc(Cl)c(C)c1`, the Potency is reported as inconclusive [inhibitor, partial curve, poor fit].
For `CC(C)CC(OC(=O)c1ccco1)C(=O)NC1CCCC1` (stereo unspecified), the Potency was “inactive”.
For `COc1ccc(-c2[nH]ncc2-c2nc(C)cs2)c(O)c1`, the Potency was “inactive”.
With `Cc1ccc2cc(CN(C(=O)c3ccco3)c3cccc(C)c3C)c(=O)[nH]c2c1` the Potency was inconclusive [inhibitor, single point].
With `CN(Cc1ccc(F)cc1)C(=O)c1cccc(S(=O)(=O)N2CCN(c3ccccc3)CC2)c1` the Potency was active: 9.28 µM.
With `Cc1sc(NC(=O)C2C3C=CC(C3)C2C(=O)O)c(C(N)=O)c1-c1ccc(C(C)C)cc1` (stereo unspecified) the Potency was “inactive”.
In the case of `COc1cc(NC(=O)CN2C(=O)c3ccccc3Sc3ccc(C(=O)N4CCOCC4)cc32)cc(OC)c1OC`, the Potency is reported as active: 6.57 µM.
In the case of `C/C(=N/O)c1c(O)c(C)c(-c2ccccc2)n(-c2ccccc2)c1=O`, the Potency is reported as “inactive”.
For `Cc1nc2c(C(=O)N3CCOCC3)cnn2c(C)c1Cc1cccc(Cl)c1`, the Potency was inconclusive [inhibitor, partial curve].
In the case of `CN1C(=O)/C(=C\c2ccccc2)Sc2ccc(C(=O)N3CCN(c4ccccn4)CC3)cc21`, the Potency is reported as inconclusive [inhibitor, single point].
In the case of `COC1CCCN(Cc2c(C(=O)N3CCN(C4CCCCC4)CC3)nc3ccccn23)C1` (stereo unspecified), the Potency is reported as inconclusive [inhibitor, single point].
In the case of `CCN1/C(=C(\O)c2ccccc2)C(=O)c2ccccc2S1(=O)=O`, the Potency is reported as inconclusive [inhibitor, single point].
In the case of `O=C(CSc1cc(Cl)ccc1Cl)Nc1ccc(N2CCOCC2)cc1`, the Potency is reported as inconclusive [inhibitor, single point].
With `Cc1cc(N2CCN(C)CC2)ccc1NC(=O)c1ccc(-c2ccc(Cl)cc2)o1` the Potency was inconclusive [inhibitor, single point].
For `Cc1cccc(C(=O)Nc2ccc(Cl)cc2C(=O)c2ccccc2)c1`, the Potency was inconclusive [inhibitor, single point].
In the case of `COc1ccc(OCC(O)CNS(=O)(=O)c2cccs2)cc1` (stereo unspecified), the Potency is reported as “inactive”.
With `COc1ccc2ccccc2c1/C=N/NC(=S)NCCN1CCOCC1` the Potency was inconclusive [inhibitor, partial curve, poor fit].
With `N#C/C(=C\c1c(N2CCOCC2)nc2ccccn2c1=O)C(=O)NC1CCS(=O)(=O)C1` (stereo unspecified) the Potency was inconclusive [inhibitor, full curve, poor fit].
For `Cc1oc(-c2ccccc2Cl)nc1CSCC(=O)N1CCCC1`, the Potency was “inactive”.
For `CCCc1nc(NCc2ccncc2)c2nnn(Cc3ccccc3F)c2n1`, the Potency was inconclusive [inhibitor, partial curve].
In the case of `Cc1cccc(NC(=O)CSc2cn[nH]n2)c1`, the Potency is reported as “inactive”.
In the case of `O=C(/C=C/c1ccccc1Cl)Nc1cccc(S(=O)(=O)NC2=NCCCCC2)c1`, the Potency is reported as “inactive”.
For `Cc1ccc(-c2nc(CS(=O)CC(=O)NC(C)CCc3ccccc3)c(C)o2)cc1` (stereo unspecified), the Potency was “inactive”.
With `CCn1c(COc2ccccc2C)nnc1SCC(=O)N1CCC(C)CC1` the Potency was inconclusive [inhibitor, partial curve, poor fit].
For `Cc1ccc(-c2cnc(NC(=O)c3cccc(Br)c3)s2)c(C)c1`, the Potency was inconclusive [inhibitor, single point].
In the case of `Cc1cccc(-n2cc(CN3CCN(Cc4nccn4C)CC3)c(-c3cccc(F)c3)n2)c1`, the Potency is reported as active: 3.29 µM.
For `O=C(NC(Nc1ncc(S(=O)(=O)c2ccc([N+](=O)[O-])cc2)s1)(C(F)(F)F)C(F)(F)F)c1ccc(Cl)cc1`, the Potency was active: 9.28 µM.
With `N#CC(C#N)=Cc1ccccc1OCc1ccccc1` the Potency was inconclusive [inhibitor, single point].
In the case of `COc1ccc(C(CNC(=O)c2ccc(OCc3c(C)noc3C)cc2)N2CCCC2)cc1` (stereo unspecified), the Potency is reported as active: 4.65 µM.
In the case of `CCOc1ccc(Oc2c(/C=N/NC(=O)C3CC3)c(C)nn2-c2ccccc2)cc1`, the Potency is reported as active: 3.29 µM.
For `Cc1ccc(NC(=O)CSC2=C(C#N)C(c3ccco3)C3=C(CCCC3=O)N2)cc1` (stereo unspecified), the Potency was inconclusive [inhibitor, partial curve, poor fit].
For `COc1ccc(N(C(=O)Cn2nnc3ccccc32)C(C(=O)NCc2ccco2)c2cccnc2)cc1` (stereo unspecified), the Potency was inconclusive [inhibitor, partial curve, poor fit].
With `O=C(CNC(=O)C12CC3CC(CC(C3)C1)C2)NCc1ccccc1` the Potency was inconclusive [inhibitor, single point].
In the case of `COc1cc(CNc2ccc3[nH]c(=O)[nH]c3c2)cc(Cl)c1OCC(=O)NC(C)(C)C`, the Potency is reported as inconclusive [inhibitor, single point].
With `Oc1ccc(/C=N/NC(=S)NC2CC3CCC2C3)cc1` (stereo unspecified) the Potency was inconclusive [inhibitor, single point].
With `O=C(CN(Cc1ccco1)C(=O)CNS(=O)(=O)c1ccc(F)cc1)NCc1ccccc1` the Potency was “inactive”.
In the case of `Cc1cccc(C)c1OCC(=O)NCc1nnc(SCC(=O)NC2CCCCC2)n1C`, the Potency is reported as active: 11.7 µM.
In the case of `CC(=O)c1ccccc1OCC(O)CN1CCN(C(c2ccccc2)c2ccccc2)CC1` (stereo unspecified), the Potency is reported as inconclusive [inhibitor, partial curve, poor fit].
With `O=C(Nc1ccc(C(=O)NCc2ccc(F)cc2)cc1)C1=CSCCO1` the Potency was inconclusive [inhibitor, partial curve].
In the case of `O=C(C1CCN(Cc2ccc(F)cc2)CC1)N1CCN(C/C=C/c2ccccc2)CC1`, the Potency is reported as inconclusive [inhibitor, single point].
In the case of `Cc1ccc(C(=O)N[C@@H](C)CN2C3=NC[C@H](C)N3C[C@H]2Cc2ccc(O)cc2)cc1Br`, the Potency is reported as active: 10.4 µM.
In the case of `COCCN=C1OC(=O)N2C(=O)C3=C4[C@@H](C[C@H]5C(=O)N(c6ccccc6)C(=O)[C@H]5[C@H]4[C@@]12Cc1ccccc1)[C@H]1C(=O)N(c2ccccc2)C(=O)[C@H]1[C@H]3C`, the Potency is reported as inconclusive [inhibitor, single point].
In the case of `CCNc1ccc(C(=O)OCC)cc1NC(=O)c1cccc(N(C)C)c1`, the Potency is reported as inconclusive [inhibitor, partial curve].
With `O=[N+]([O-])c1ccccc1/C=N/N1CCN(c2ccccn2)CC1` the Potency was “inactive”.
With `COC(=O)c1cc(NC(=O)c2c(-c3c(Cl)cccc3Cl)noc2C)ccc1N1CCOCC1` the Potency was inconclusive [inhibitor, single point].
In the case of `CCN1CCN(Cc2c(O)ccc3c2O/C(=C\c2ccccc2)C3=O)CC1`, the Potency is reported as inconclusive [inhibitor, single point].
With `Cc1ccsc1/C=N/N1CCN(c2ccccn2)CC1` the Potency was “inactive”.
For `CCOC(=O)c1c(NC(=O)Cc2ccccc2)sc2c1CC(C)(C)NC2(C)C`, the Potency was inconclusive [inhibitor, single point].
In the case of `CN1CCN(c2ccc(NC(=O)CSc3nnnn3-c3ccccc3Cl)cc2)CC1`, the Potency is reported as inconclusive [inhibitor, partial curve, poor fit].
In the case of `CCc1cccc(C)c1NC(=S)N(Cc1cccnc1)Cc1ccco1`, the Potency is reported as inconclusive [inhibitor, single point].
With `COc1cc(/C=N/NC(=O)C(=O)N2CCCCCC2)ccc1O` the Potency was inconclusive [inhibitor, partial curve, poor fit].
